From the supplement of paper PMC11125491
± gives the standard deviation of the averaged measurements. Growth of baker's yeast expressing single-residue variants of Pneumocystis jirovecii dihydrofolate reductase in 8.8 or 44 µM methotrexate (about 75% and 90% inhibition of the wild type). Selection coefficient per generation; 0 = like wild type, above 0 = less sensitive, below 0 = more sensitive or loss of function. No active / inactive call per row; the paper calls resistant above 0.220 (8.8 µM) or 0.243 (44 µM) together with a significance test. At 44 µM about 15% of codons end with one read or none, so the lowest values are floors (replicate rank correlation 0.74; 0.94 at 8.8 µM).

B1: UniProt A0EPZ9; numbered along this chain (parent)
chain: MDWQKSLTLIVALTLSRGIGLKNDLPWKLKSDMMFFSRVTSGLLVTRSTGQMNVVLMGRKTWESLPAHSRPLKNRINVVISRQEVLDLGGGAYHARSLDDALALLSQIYDSTSKIQLNRVFVIGGGELCKAAMEHSRLNRIIATVIHNEVDCDVFFPIDFRSSQSCLPWRKQDHSVLEAWVGSKVPQGKINENGFIYEFEMWIRDI

Variants of: B1
Test: selection coefficient against synonymous wild-type codons (log2 per generation); higher = faster growth than wild type
Settings: with Saccharomyces cerevisiae carrying the variant on a plasmid
Experimental: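 Pooled growth of yeast carrying single-residue variants of P. jirovecii dihydrofolate reductase (own DFR1 gene intact), two passages at 30 °C, three cultures, sequenced before and after. Codons with under 15 starting reads are left out; codons of one change are averaged.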

| Variant | selection coefficient against synonymous wild-type codons (log2) (methotrexate 8.8 µM) | selection coefficient against synonymous wild-type codons (log2) (methotrexate 44 µM) |
| --- | --- | --- |
| K5I | 0.3 ± 0.018 | 0.188 ± 0.061 |
| K5H | 0.281 ± 0.03 | 0.307 ± 0.064 |
| K5S | 0.163 ± 0.12 | 0.178 ± 0.12 |
| K5R | -0.0842 ± 0.084 | -0.148 ± 0.13 |
| K5E | -0.00561 ± 0.053 | 0.0804 ± 0.009 |
| K5V | 0.0757 ± 0.11 | 0.0453 ± 0.11 |
| K5C | -0.295 ± 0.033 | -0.285 ± 0.19 |
| K5P | 0.232 ± 0.075 | 0.306 ± 0.19 |
| K5Y | 0.37 ± 0.032 | 0.38 ± 0.039 |
| K5A | 0.211 ± 0.11 | 0.234 ± 0.084 |
| K5Q | -0.0819 ± 0.083 | -0.0462 ± 0.062 |
| K5D | 0.374 ± 0.028 | 0.371 ± 0.06 |
| K5W | -0.401 ± 0.087 | -0.269 ± 0.13 |
| K5T | 0.148 ± 0.15 | 0.191 ± 0.16 |
| K5G | 0.174 ± 0.14 | 0.201 ± 0.13 |
| K5N | 0.565 ± 0.04 | 0.603 ± 0.032 |
| K5L | -0.134 ± 0.062 | -0.14 ± 0.17 |
| K5M | 0.367 ± 0.037 | 0.373 ± 0.034 |
| K5F | 0.329 ± 0.042 | 0.267 ± 0.029 |
| I10N | 0.626 ± 0.019 | 0.766 ± 0.011 |
| I10Q | 0.0971 ± 0.094 | 0.24 ± 0.023 |
| I10H | 0.905 ± 0.048 | 1.18 ± 0.043 |
| I10P | -0.0446 ± 0.066 | 0.163 ± 0.11 |
| I10A | 0.13 ± 0.036 | 0.223 ± 0.089 |

| Variant | selection coefficient against synonymous wild-type codons (log2) (methotrexate 8.8 µM) | selection coefficient against synonymous wild-type codons (log2) (methotrexate 44 µM) |
| --- | --- | --- |
| I10L | 0.0119 ± 0.048 | 0.148 ± 0.079 |
| I10C | 0.607 ± 0.026 | 0.705 ± 0.01 |
| I10D | 0.821 ± 0.046 | 1.11 ± 0.028 |
| I10M | 0.08 ± 0.029 | 0.187 ± 0.036 |
| I10F | 0.553 ± 0.041 | 0.71 ± 0.022 |
| I10E | 0.698 ± 0.021 | 0.889 ± 0.0079 |
| I10G | 0.175 ± 0.025 | 0.34 ± 0.043 |
| I10K | -0.0967 ± 0.047 | 0.0248 ± 0.11 |
| L7D | -0.55 ± 0.14 | -0.344 ± 0.071 |
| L7A | 0.0434 ± 0.057 | 0.0277 ± 0.084 |
| L7W | -0.0197 ± 0.022 | -0.0409 ± 0.025 |
| L7T | -0.0853 ± 0.12 | -0.016 ± 0.081 |
| L7V | -0.0576 ± 0.044 | -0.0215 ± 0.096 |
| L7H | -0.228 ± 0.043 | -0.166 ± 0.13 |
| L7C | 0.0773 ± 0.03 | -0.00323 ± 0.029 |
| L7S | -0.257 ± 0.11 | -0.179 ± 0.16 |
| L7F | 0.156 ± 0.027 | 0.115 ± 0.11 |
| L7Y | -0.112 ± 0.1 | -0.121 ± 0.12 |
| L7R | -0.411 ± 0.093 | -0.28 ± 0.13 |
| L7I | -0.0801 ± 0.087 | -0.108 ± 0.15 |
| L7P | -0.273 ± 0.13 | -0.192 ± 0.062 |
| L7N | -0.252 ± 0.032 | -0.18 ± 0.068 |
| L7E | -0.363 ± 0.08 | -0.368 ± 0.018 |
| L7M | -0.159 ± 0.11 | -0.0575 ± 0.078 |

| Variant | selection coefficient against synonymous wild-type codons (log2) (methotrexate 8.8 µM) | selection coefficient against synonymous wild-type codons (log2) (methotrexate 44 µM) |
| --- | --- | --- |
| L7G | -0.184 ± 0.055 | -0.148 ± 0.067 |
| L7K | -0.497 ± 0.092 | -0.377 ± 0.021 |
| L7Q | -0.294 ± 0.037 | -0.238 ± 0.13 |
| S6F | -0.413 ± 0.073 | -0.099 ± 0.098 |
| S6P | 0.16 ± 0.068 | 0.0758 ± 0.11 |
| S6Y | -0.0843 ± 0.16 | -0.0966 ± 0.18 |
| S6H | 0.386 ± 0.025 | 0.295 ± 0.021 |
| S6V | -0.4 ± 0.11 | -0.053 ± 0.21 |
| S6G | 0.425 ± 0.02 | 0.493 ± 0.039 |
| S6R | 0.0844 ± 0.083 | 0.0596 ± 0.15 |
| S6M | 0.423 ± 0.018 | 0.31 ± 0.054 |
| S6N | 0.683 ± 0.034 | 0.765 ± 0.047 |
| S6A | -0.0126 ± 0.065 | -0.0316 ± 0.13 |
| S6E | 0.497 ± 0.023 | 0.489 ± 0.025 |
| S6D | 0.653 ± 0.023 | 0.705 ± 0.0054 |
| S6L | -0.378 ± 0.13 | -0.113 ± 0.21 |
| S6W | -0.226 ± 0.042 | -0.066 ± 0.17 |
| S6C | 0.0184 ± 0.055 | -0.0043 ± 0.029 |
| S6Q | 0.213 ± 0.026 | 0.142 ± 0.042 |
| S6K | 0.233 ± 0.046 | 0.17 ± 0.058 |
| S6T | 0.21 ± 0.13 | 0.107 ± 0.15 |
| Q4P | 0.00842 ± 0.086 | -0.0187 ± 0.11 |
| Q4S | -0.122 ± 0.072 | -0.0722 ± 0.12 |
| Q4R | -0.297 ± 0.11 | -0.254 ± 0.15 |

| Variant | selection coefficient against synonymous wild-type codons (log2) (methotrexate 8.8 µM) | selection coefficient against synonymous wild-type codons (log2) (methotrexate 44 µM) |
| --- | --- | --- |
| Q4N | -0.0768 ± 0.067 | -0.0696 ± 0.088 |
| Q4T | -0.0676 ± 0.039 | -0.0459 ± 0.1 |
| Q4Y | -0.3 ± 0.06 | -0.0853 ± 0.14 |
| Q4W | -0.373 ± 0.14 | -0.348 ± 0.043 |
| Q4V | -0.389 ± 0.17 | -0.25 ± 0.096 |
| Q4M | 0.345 ± 0.034 | 0.351 ± 0.0076 |
| L9K | -0.52 ± 0.052 | -0.23 ± 0.095 |
| L9N | -0.467 ± 0.061 | -0.151 ± 0.18 |
| L9F | 0.206 ± 0.035 | 0.212 ± 0.012 |
| L9V | 0.261 ± 0.039 | 0.221 ± 0.061 |
| L9Y | 0.381 ± 0.031 | 0.471 ± 0.024 |
| L9G | -0.233 ± 0.055 | -0.218 ± 0.11 |
| L9S | -0.368 ± 0.12 | -0.183 ± 0.1 |
| L9C | 0.142 ± 0.028 | 0.0925 ± 0.049 |
| L9H | -0.347 ± 0.033 | -0.222 ± 0.11 |
| L9Q | -0.443 ± 0.16 | -0.28 ± 0.1 |
| L9T | -0.205 ± 0.093 | -0.0623 ± 0.11 |
| L9R | -0.545 ± 0.03 | -0.225 ± 0.12 |
| L9M | 0.0544 ± 0.031 | -0.0504 ± 0.11 |
| L9W | 0.506 ± 0.0097 | 0.631 ± 0.023 |
| L9E | -0.37 ± 0.1 | -0.197 ± 0.2 |
| L9I | 0.245 ± 0.028 | 0.181 ± 0.077 |
| L9D | -0.527 ± 0.11 | -0.28 ± 0.14 |
| L9P | -0.429 ± 0.11 | -0.16 ± 0.11 |

| Variant | selection coefficient against synonymous wild-type codons (log2) (methotrexate 8.8 µM) | selection coefficient against synonymous wild-type codons (log2) (methotrexate 44 µM) |
| --- | --- | --- |
| L9A | 0.0578 ± 0.025 | -0.0267 ± 0.15 |
| T8H | -0.185 ± 0.17 | -0.0863 ± 0.12 |
| T8G | -0.305 ± 0.079 | -0.182 ± 0.14 |
| T8K | -0.562 ± 0.059 | -0.357 ± 0.02 |
| T8W | -0.409 ± 0.082 | -0.271 ± 0.17 |
| T8F | -0.376 ± 0.12 | -0.28 ± 0.054 |
| T8I | -0.246 ± 0.1 | -0.097 ± 0.06 |
| T8Q | -0.179 ± 0.048 | -0.214 ± 0.24 |
| T8E | -0.132 ± 0.082 | -0.0181 ± 0.05 |
| T8M | -0.553 ± 0.076 | -0.129 ± 0.043 |
| T8Y | -0.398 ± 0.15 | -0.269 ± 0.13 |
| T8C | -0.118 ± 0.029 | -0.275 ± 0.15 |
| T8A | -0.402 ± 0.13 | -0.31 ± 0.083 |
| T8V | -0.135 ± 0.055 | -0.136 ± 0.041 |
| T8P | -0.49 ± 0.071 | -0.254 ± 0.055 |
| T8S | -0.228 ± 0.082 | -0.173 ± 0.14 |
| T8L | -0.471 ± 0.21 | -0.191 ± 0.18 |
| T8D | -0.195 ± 0.061 | -0.169 ± 0.029 |
| T8R | -0.513 ± 0.11 | -0.259 ± 0.059 |
| T8N | -0.191 ± 0.027 | -0.203 ± 0.16 |
